Experimental data as given in paper PMC9911399, “Two distinct binding modes provide the RNA-binding protein RbFox with extraordinary sequence specificity”.
Substitutions are numbered along the chain they refer to; changes in the protein carry UniProt numbers. This is one part of the list.

T1: RBFOX1 RRM (Homo sapiens, UniProt Q9NWB1 109-208)
T1 sequence: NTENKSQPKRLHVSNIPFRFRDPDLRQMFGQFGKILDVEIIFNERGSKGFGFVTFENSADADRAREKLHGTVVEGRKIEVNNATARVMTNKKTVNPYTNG

B1: GGCUGUG (DNA:RNA)
RNA: GGGAGACCGGAAUUCAGAUUGUCCGGCUGUGUUAAAUCCCGUCGUAGCCACCA
DNA 1: CAATCTGAATTCCGGTCTCCC
DNA 2: TGGTGGCTACGACGGGATT
B2: GGUGCUA (DNA:RNA)
RNA: B1 RNA with C27U, U28G, G29C, G31A
DNA 1: CAATCTGAATTCCGGTCTCCC
DNA 2: TGGTGGCTACGACGGGATT
B3: UAGGUGG (DNA:RNA)
RNA: B1 RNA with G25U, G26A, C27G, U28G, G29U, U30G
DNA 1: CAATCTGAATTCCGGTCTCCC
DNA 2: TGGTGGCTACGACGGGATT
B4: CCGGCAG (DNA:RNA)
RNA: B1 RNA with G25C, G26C, C27G, U28G, G29C, U30A
DNA 1: CAATCTGAATTCCGGTCTCCC
DNA 2: TGGTGGCTACGACGGGATT
B5: UUCUCUU (DNA:RNA)
RNA: B1 RNA with G25U, G26U, G29C, G31U
DNA 1: CAATCTGAATTCCGGTCTCCC
DNA 2: TGGTGGCTACGACGGGATT
B6: UGAGCAA (DNA:RNA)
RNA: B1 RNA with G25U, C27A, U28G, G29C, U30A, G31A
DNA 1: CAATCTGAATTCCGGTCTCCC
DNA 2: TGGTGGCTACGACGGGATT
B7: UAUUAGC (DNA:RNA)
RNA: B1 RNA with G25U, G26A, C27U, G29A, U30G, G31C
DNA 1: CAATCTGAATTCCGGTCTCCC
DNA 2: TGGTGGCTACGACGGGATT
B8: GGUUGUU (DNA:RNA)
RNA: B1 RNA with C27U, G31U
DNA 1: CAATCTGAATTCCGGTCTCCC
DNA 2: TGGTGGCTACGACGGGATT
B9: CGACAGA (DNA:RNA)
RNA: B1 RNA with G25C, C27A, U28C, G29A, U30G, G31A
DNA 1: CAATCTGAATTCCGGTCTCCC
DNA 2: TGGTGGCTACGACGGGATT
B10: AGAUGUC (DNA:RNA)
RNA: B1 RNA with G25A, C27A, G31C
DNA 1: CAATCTGAATTCCGGTCTCCC
DNA 2: TGGTGGCTACGACGGGATT
B11: AUGGGGU (DNA:RNA)
RNA: B1 RNA with G25A, G26U, C27G, U28G, U30G, G31U
DNA 1: CAATCTGAATTCCGGTCTCCC
DNA 2: TGGTGGCTACGACGGGATT
B12: UGAUUGU (DNA:RNA)
RNA: B1 RNA with G25U, C27A, G29U, U30G, G31U
DNA 1: CAATCTGAATTCCGGTCTCCC
DNA 2: TGGTGGCTACGACGGGATT
B13: CUGUGCG (DNA:RNA)
RNA: B1 RNA with G25C, G26U, C27G, U30C
DNA 1: CAATCTGAATTCCGGTCTCCC
DNA 2: TGGTGGCTACGACGGGATT
B14: CCCUGCA (DNA:RNA)
RNA: B1 RNA with G25C, G26C, U30C, G31A
DNA 1: CAATCTGAATTCCGGTCTCCC
DNA 2: TGGTGGCTACGACGGGATT
B15: CCCGCAG (DNA:RNA)
RNA: B1 RNA with G25C, G26C, U28G, G29C, U30A
DNA 1: CAATCTGAATTCCGGTCTCCC
DNA 2: TGGTGGCTACGACGGGATT
B16: AGGCAUC (DNA:RNA)
RNA: B1 RNA with G25A, C27G, U28C, G29A, G31C
DNA 1: CAATCTGAATTCCGGTCTCCC
DNA 2: TGGTGGCTACGACGGGATT
B17: UAUGAUG (DNA:RNA)
RNA: B1 RNA with G25U, G26A, C27U, U28G, G29A
DNA 1: CAATCTGAATTCCGGTCTCCC
DNA 2: TGGTGGCTACGACGGGATT
B18: GUAUACG (DNA:RNA)
RNA: B1 RNA with G26U, C27A, G29A, U30C
DNA 1: CAATCTGAATTCCGGTCTCCC
DNA 2: TGGTGGCTACGACGGGATT
B19: CAUAUUA (DNA:RNA)
RNA: B1 RNA with G25C, G26A, C27U, U28A, G29U, G31A
DNA 1: CAATCTGAATTCCGGTCTCCC
DNA 2: TGGTGGCTACGACGGGATT
B20: GGACACC (DNA:RNA)
RNA: B1 RNA with C27A, U28C, G29A, U30C, G31C
DNA 1: CAATCTGAATTCCGGTCTCCC
DNA 2: TGGTGGCTACGACGGGATT
B21: GAGAAAU (DNA:RNA)
RNA: B1 RNA with G26A, C27G, U28A, G29A, U30A, G31U
DNA 1: CAATCTGAATTCCGGTCTCCC
DNA 2: TGGTGGCTACGACGGGATT
B22: UACACUA (DNA:RNA)
RNA: B1 RNA with G25U, G26A, U28A, G29C, G31A
DNA 1: CAATCTGAATTCCGGTCTCCC
DNA 2: TGGTGGCTACGACGGGATT
B23: CAACGGA (DNA:RNA)
RNA: B1 RNA with G25C, G26A, C27A, U28C, U30G, G31A
DNA 1: CAATCTGAATTCCGGTCTCCC
DNA 2: TGGTGGCTACGACGGGATT
B24: CUAUCUA (DNA:RNA)
RNA: B1 RNA with G25C, G26U, C27A, G29C, G31A
DNA 1: CAATCTGAATTCCGGTCTCCC
DNA 2: TGGTGGCTACGACGGGATT
B25: UGGUCAA (DNA:RNA)
RNA: B1 RNA with G25U, C27G, G29C, U30A, G31A
DNA 1: CAATCTGAATTCCGGTCTCCC
DNA 2: TGGTGGCTACGACGGGATT
B26: AUACUAC (DNA:RNA)
RNA: GGGAGACCGGAAUUCAGAUUGUCCAUACUACUUAAAUCCCGUCGUAGCCACCA
DNA 1: CAATCTGAATTCCGGTCTCCC
DNA 2: TGGTGGCTACGACGGGATT
B27: CAGGACG (DNA:RNA)
RNA: B1 RNA with G25C, G26A, C27G, U28G, G29A, U30C
DNA 1: CAATCTGAATTCCGGTCTCCC
DNA 2: TGGTGGCTACGACGGGATT
B28: AUACAAG (DNA:RNA)
RNA: B26 RNA with U29A, C31G
DNA 1: CAATCTGAATTCCGGTCTCCC
DNA 2: TGGTGGCTACGACGGGATT
B29: UGGAGAG (DNA:RNA)
RNA: B1 RNA with G25U, C27G, U28A, U30A
DNA 1: CAATCTGAATTCCGGTCTCCC
DNA 2: TGGTGGCTACGACGGGATT
B30: UCAAGCA (DNA:RNA)
RNA: B26 RNA with A25U, U26C, C28A, U29G, A30C, C31A
DNA 1: CAATCTGAATTCCGGTCTCCC
DNA 2: TGGTGGCTACGACGGGATT
B31: UUGGCGC (DNA:RNA)
RNA: B26 RNA with A25U, A27G, C28G, U29C, A30G
DNA 1: CAATCTGAATTCCGGTCTCCC
DNA 2: TGGTGGCTACGACGGGATT

biological target: T1, RBFOX1 RRM; assay: EMSA; HiTS-Eq, 1 nM pool, 10 min; buffer printed only for the single-RNA assays: 10 mM Tris pH 7.5, 150 mM NaCl, 3.4 mM EDTA, 0.001% NP-40, 30 C; settings: tags: His6 N-terminal (pET28a); label: 5' 32P
In short: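 These values rest on relative association constants, computed from read-count changes of each RNA species versus the control reaction and normalised to the cognate motif. Reads came from free RNA recovered by 8% native PAGE after purified RbFox RRM (wild type or mutant) at increasing concentrations was equilibrated for 10 min in 50 µL with 1 nM of a 5′-radiolabelled pool with 7 randomized nucleotides and DNA-annealed flanks.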

Question: With B1 as the binder, how does the binding signal read?
Answer: The binding signal was 0.0314 KA relative to UGCAUGU.

Question: Which binding signal does the source give for B2 here?
Answer: Its binding signal is 0.0065 KA relative to UGCAUGU.

Question: With B3 as the binder, how does the binding signal read?
Answer: The binding signal was 0.0143 KA relative to UGCAUGU.

Question: With B4 as the binder, how does the binding signal read?
Answer: The binding signal was 0.0196 KA relative to UGCAUGU.

Question: How did the binding signal turn out when B5 was run?
Answer: Its binding signal is 0.0103 KA relative to UGCAUGU.

Question: How did the binding signal turn out when B6 was run?
Answer: Its binding signal is 0.0137 KA relative to UGCAUGU.

Question: With B7 as the binder, how does the binding signal read?
Answer: The binding signal was 0.0126 KA relative to UGCAUGU.

Question: B8 was tested. Which binding signal did it give?
Answer: The binding signal was 0.0122 KA relative to UGCAUGU.

Question: Which binding signal does the source give for B9 here?
Answer: Its binding signal is 0.00926 KA relative to UGCAUGU.

Question: B10 was tested. Which binding signal did it give?
Answer: Its binding signal is 0.0104 KA relative to UGCAUGU.

Question: With B11 as the binder, how does the binding signal read?
Answer: The binding signal was 0.0147 KA relative to UGCAUGU.

Question: B12 was tested. Which binding signal did it give?
Answer: The binding signal was 0.0253 KA relative to UGCAUGU.

Question: B13 was tested. Which binding signal did it give?
Answer: Its binding signal is 0.025 KA relative to UGCAUGU.

Question: How did the binding signal turn out when B14 was run?
Answer: Its binding signal is 0.0126 KA relative to UGCAUGU.

Question: For B15, which binding signal is on record?
Answer: The binding signal was 0.0146 KA relative to UGCAUGU.

Question: With B16 as the binder, how does the binding signal read?
Answer: The binding signal was 0.0123 KA relative to UGCAUGU.

Question: For B17, which binding signal is on record?
Answer: The binding signal was 0.0226 KA relative to UGCAUGU.

Question: With B18 as the binder, how does the binding signal read?
Answer: Its binding signal is 0.00681 KA relative to UGCAUGU.

Question: B19 was tested. Which binding signal did it give?
Answer: The binding signal was 0.00187 KA relative to UGCAUGU.

Question: B20 was tested. Which binding signal did it give?
Answer: The binding signal was 0.0121 KA relative to UGCAUGU.

Question: With B21 as the binder, how does the binding signal read?
Answer: Its binding signal is 0.00334 KA relative to UGCAUGU.

Question: With B22 as the binder, how does the binding signal read?
Answer: Its binding signal is 0.000718 KA relative to UGCAUGU.

Question: B23 was tested. Which binding signal did it give?
Answer: The binding signal was 0.00758 KA relative to UGCAUGU.

Question: How did the binding signal turn out when B24 was run?
Answer: The binding signal was 0.00338 KA relative to UGCAUGU.

Question: For B25, which binding signal is on record?
Answer: Its binding signal is 0.0123 KA relative to UGCAUGU.

Question: For B26, which binding signal is on record?
Answer: Its binding signal is 0.00359 KA relative to UGCAUGU.

Question: Which binding signal does the source give for B27 here?
Answer: The binding signal was 0.00691 KA relative to UGCAUGU.

Question: How did the binding signal turn out when B28 was run?
Answer: Its binding signal is 0.00244 KA relative to UGCAUGU.

Question: How did the binding signal turn out when B29 was run?
Answer: Its binding signal is 0.0249 KA relative to UGCAUGU.

Question: Which binding signal does the source give for B30 here?
Answer: The binding signal was 0.00846 KA relative to UGCAUGU.

Question: Which binding signal does the source give for B31 here?
Answer: The binding signal was 0.0249 KA relative to UGCAUGU.
